Some of the results follow. Rule as the data show it: active = 25% or less and inactive = the rest. Single values are uncertain, as repeats are few or missing.
Key:
[1] = tested on: Salmonella enterica serovar Typhimurium SL1344; experiment: bacterial growth OD600 after 18 h in MHB with 0.5 µg/mL polymyxin B; higher = more bacterial growth (less inhibition); conditions: 25 µM; polymyxin B 0.5 µg/mL; system: broth
Protocol: (§1)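 Secondary screen of the 553 primary hits at 25 µM. (i) S. Typhimurium SL1344 grown in Mueller-Hinton broth with 0.5 µg/mL polymyxin B, OD600 read after 18 h. (ii) SAFIRE assay: RAW 264.7 macrophages infected with S. Typhimurium sifB::gfp (MOI 30); compound added 2 h post-infection; cells fixed at 18 h; GFP-positive pixel fraction per macrophage imaged by confocal microscopy and expressed as % of DMSO control.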

[2] = tested on: Salmonella enterica serovar Typhimurium SL1344; experiment: intramacrophage bacterial GFP load (SAFIRE), percent of DMSO control (% of DMSO); higher = more intracellular bacteria (less inhibition); conditions: 25 µM; system: infected RAW 264.7 macrophages
Protocol: as §1
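For bacterial growth OD600 after 18 h in MHB with 0.5 µg/mL polymyxin B in this document: polymyxin B level opens the outer membrane while sparing the inner membrane, with novobiocin wells as reference growth inhibitor.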
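For intramacrophage bacterial GFP load (SAFIRE), percent of DMSO control in this document: compounds tested were the hits of an earlier 50 µM broth growth screen of a drug-like diversity library run with polymyxin B.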

| SMILES | bacterial growth OD600 [1] | intramacrophage bacterial GFP load [2] |
| --- | --- | --- |
| Cc1nonc1CN(C)C(=O)C1CCN(c2nc(-c3ccccc3)nc3c2CCC3)CC1 | 0.001 | inactive: 141 |
| Cc1c(C(=O)N(C)C(C)C)sc2ncnc(NC[C@H]3C[C@@H]4C=C[C@H]3C4)c12 | 0.511 | inactive: 89.7 |
| O=C(CN1CCCCC1)N(Cc1ccncc1)Cc1cccc(OCCc2ccc(F)cc2)c1 | 0.003 | active: 2.16 |
| Cc1ccc(CN(C)Cc2cnc(S(=O)(=O)C(C)C)n2CCc2ccccc2)cc1 | 0.003 | inactive: 95.6 |
| COc1cccc(C2c3[nH]c4ccccc4c3CCN2Cc2ccco2)c1OC (stereo not given) | 0.008 | inactive: 56.3 |
| O=C(CN1CCOC1=O)N1CCCC(CCc2cccc(C(F)(F)F)c2)C1 (stereo not given) | 0.008 | inactive: 62.9 |
| COc1ccccc1CNC(=O)c1coc(COc2ccc(F)cc2)n1 | 0.087 | inactive: 179 |
| O=C(CN1CC(c2ccccc2)CC1=O)N(Cc1ccncc1)Cc1cccc(OCCc2ccc(F)cc2)c1 (stereo not given) | -0.005 | active: 21.5 |
| COc1cccc(-c2cnc(-c3ccncc3)nc2C2CCN(Cc3cn(C)c4ccccc34)CC2)c1 | 0.003 | active: 0.65 |
| C=CCCC(=O)N1CCCC(C(=O)Nc2cccc(-c3ccc(F)cc3)c2)C1 (stereo not given) | 0.05 | inactive: 122 |
| CN(C)C(=O)CC(c1ccccc1)c1cccc(Cl)c1 (stereo not given) | 0.112 | inactive: 76.2 |
| CN(Cc1ccon1)c1ccc(-c2nc(Cc3ccc(F)cc3)no2)cn1 | 0.384 | inactive: 118 |
| CCOC(=O)C1(Cc2ccccc2C)CCCN(C(=O)c2sccc2C)C1 (stereo not given) | 0.004 | inactive: 111 |
| CN(C(=O)c1ccccn1)C(Cc1ccccc1)C1CCN(C(=O)/C(F)=C/c2ccccc2)CC1 (stereo not given) | 0.022 | active: 5.74 |
| Cc1noc(-c2ccc(NCC[C@@H]3C[C@@H]4C=C[C@H]3C4)nc2)n1 | 0.004 | inactive: 112 |
| COCCCN1C(=O)CC(CC(=O)N2CC3(C)CC2CC(C)(C)C3)(c2ccccc2Cl)C1=O (stereo not given) | -0.029 | inactive: 45.8 |
| O=C(CCC(F)(F)F)N1CCc2onc(-c3cccc4ccccc34)c2C1 | 0.009 | inactive: 196 |
| CC(C)S(=O)(=O)c1ncc(CN(C)Cc2ccco2)n1Cc1ccccc1F | 0.007 | inactive: 152 |
| COCCCN1C(=O)CC(CC(=O)N2CCCC(c3ccccc3C)C2)(c2ccccc2Cl)C1=O (stereo not given) | -0.007 | inactive: 69.1 |
| O=C(c1ccc2c(c1)OCO2)C1CCCN(C(=O)c2csc(-c3cccs3)n2)C1 (stereo not given) | 0.003 | inactive: 152 |
| COCCCN1C(=O)CC(CC(=O)N2CCC(c3ccccc3Cl)C2)(c2ccccc2OC)C1=O (stereo not given) | -0.004 | inactive: 81.3 |
| Fc1ccc(CN2CCOc3ccc(CN4CCC(Oc5cccnc5)CC4)cc3C2)cc1F | 0.009 | active: 4.82 |
| Cc1cc(-c2cc(F)cc3c2OC(CNC(=O)C2(C)CC2)C3)ccc1F (stereo not given) | 0 | inactive: 72.9 |
| CN(Cc1ccn[nH]1)C(=O)c1ccc2oc(-c3ccc(C(F)(F)F)cc3)nc2c1 | 0 | inactive: 105 |
| Cc1cc(-c2cc(F)cc3c2OC(CNC(=O)c2ccco2)C3)ccc1F (stereo not given) | 0 | inactive: 111 |
| COc1cccc(C2c3[nH]c4ccccc4c3CCN2C(=O)c2nc(C)c[nH]2)c1 (stereo not given) | -0.002 | inactive: 69.7 |
| CCN1CCCC(CN(C)C(=O)c2cc(NC(=O)COC)cc3nc(-c4cccnc4)n(CC)c23)C1 (stereo not given) | 0.672 | inactive: 96.4 |
| Cc1nonc1C1CCCN1c1ccc(-c2nc(COc3ccccc3)no2)cn1 (stereo not given) | 0.319 | inactive: 165 |
| Cc1ccccc1CCC1CCCN(C(=O)CC2CC2)C1 (stereo not given) | 0.497 | inactive: 116 |
| Fc1cc(CNc2nc3nonc3nc2N2CCOCC2)cc(C(F)(F)F)c1 | -0.002 | inactive: 138 |

Source: the supplement of paper PMC12889115
